In PMC6919601, “Identification of Plasmodium dipeptidyl aminopeptidase allosteric inhibitors by high throughput screening” (PLoS ONE, 2019):
In all, about 110,000 compounds went through this assay and about 230 (0.21%) showed an effect of 50% or more. This is one part of the list.
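Also: 30 min substrate incubation versus DMSO and 10 µM JCP410 controls.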

These molecules were tested against DPAP1 (Plasmodium falciparum, UniProt Q8IIJ9) (assay: primary screen, percent inhibition; read by cleavage of a fluorogenic dipeptide substrate; higher = more effect of the substance).
Chain of DPAP1 (Q8IIJ9 whole entry, looked up): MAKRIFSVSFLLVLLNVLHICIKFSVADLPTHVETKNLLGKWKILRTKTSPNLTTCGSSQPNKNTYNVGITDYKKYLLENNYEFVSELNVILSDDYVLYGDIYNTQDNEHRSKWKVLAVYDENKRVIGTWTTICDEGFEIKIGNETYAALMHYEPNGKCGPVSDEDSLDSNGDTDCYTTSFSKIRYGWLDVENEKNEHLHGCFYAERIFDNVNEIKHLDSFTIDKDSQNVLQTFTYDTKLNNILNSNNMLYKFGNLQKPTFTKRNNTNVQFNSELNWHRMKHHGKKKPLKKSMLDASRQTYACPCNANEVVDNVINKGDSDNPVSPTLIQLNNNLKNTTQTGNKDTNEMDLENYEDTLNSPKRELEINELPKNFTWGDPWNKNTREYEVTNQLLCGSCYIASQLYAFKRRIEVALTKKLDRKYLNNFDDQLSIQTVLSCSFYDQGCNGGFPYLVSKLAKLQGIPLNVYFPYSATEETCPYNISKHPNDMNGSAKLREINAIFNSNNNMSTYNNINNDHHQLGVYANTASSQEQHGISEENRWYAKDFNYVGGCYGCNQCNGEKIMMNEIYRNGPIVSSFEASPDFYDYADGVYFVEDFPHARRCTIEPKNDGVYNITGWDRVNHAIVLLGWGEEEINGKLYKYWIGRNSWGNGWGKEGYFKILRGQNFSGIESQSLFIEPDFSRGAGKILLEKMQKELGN
Parameters: species or system P. falciparum D10 trophozoite lysates; single well
For `O=C(Nc1nc(-c2ccc(Cl)cc2)cs1)c1ccc2c(c1)OCO2`, the “% Inhibition @ 10 uM” value was -2.27%. For `C/N=c1\c(NC(=O)c2cccs2)c(O)oc2ccccc12`, the “% Inhibition @ 10 uM” value was -2.23%. `CCOc1ccccc1C1C2=C(O)CC(c3ccc(OC)cc3)CC2=Nc2ccccc2N1C(C)=O` (centres unmarked) was tested, and the “% Inhibition @ 10 uM” value was -2.8%. With `CCc1ccc(C2CC(=O)NC(SCc3ccccc3)=C2C#N)cc1` (centres unmarked) the “% Inhibition @ 10 uM” value was 8.01%. `Cc1cc(C)n(-c2nc3cc(Cl)ccc3nc2NCc2ccccc2)n1` was tested, and the “% Inhibition @ 10 uM” value was 8.64%. `CCNS(=O)(=O)c1ccc(NC(=O)c2ccc(Cn3cc(Br)cn3)o2)cc1` was tested, and the “% Inhibition @ 10 uM” value was 1.8%. In the case of `CN1CCN(c2ccc3sc4ccccc4c(=O)c3c2)CC1`, the “% Inhibition @ 10 uM” value is reported as 0.823%. With `CCOCCCNC(=O)c1cnn(-c2ccc(F)cc2F)c1C1CCN(C(=O)OC(C)(C)C)CC1` the “% Inhibition @ 10 uM” value was -1.98%. For `CC(C)CS(=O)(=O)C1=NN2C(=N)/C(=C\c3ccc(Cl)cc3)C(=O)N=C2S1`, the “% Inhibition @ 10 uM” value was 8.11%. With `CCOCCOC(=O)C1=C(C)NC(=O)NC1c1ccccc1OCC` (centres unmarked) the “% Inhibition @ 10 uM” value was 26.5%. For `CC(C)C[C@H](NC(=O)OCc1cccc(C(F)(F)F)c1)C(=O)NCC#N`, the “% Inhibition @ 10 uM” value was -1.41%. With `Cc1nc(Nc2nc(O)c3c(n2)CCCC3)nc2ccccc12` the “% Inhibition @ 10 uM” value was -1.6%. With `COc1ccc(C2C=C(c3ccc(C)c(C)c3)Nc3nnnn32)c(OC)c1OC` (centres unmarked) the “% Inhibition @ 10 uM” value was 1.86%. `Cc1nc2cc(C(=O)O)ccc2[nH]1` was tested, and the “% Inhibition @ 10 uM” value was -6.62%. `CN(Cc1ccccc1)C(=O)C1CCN(S(=O)(=O)c2cc(Cl)ccc2Cl)CC1` was tested, and the “% Inhibition @ 10 uM” value was 2.39%. For `CCn1c(O)c(C2=NCCC2)c2ccccc21`, the “% Inhibition @ 10 uM” value was -6.83%. For `Cc1cccc(OCC(=O)Nc2ccc(S(=O)(=O)N3CCCCC3)cc2)c1`, the “% Inhibition @ 10 uM” value was 10.3%. For `CCN(CC)c1ccc(NC(C)=O)c(C)c1`, the “% Inhibition @ 10 uM” value was 6.18%. With `Cc1ccccc1-c1nnc(CN2CCC3(CC2)OCCO3)o1` the “% Inhibition @ 10 uM” value was -2.23%. In the case of `O=C(Nc1ccc(Cl)cc1C(=O)NCc1ccco1)c1ccco1`, the “% Inhibition @ 10 uM” value is reported as -2.17%. In the case of `OCC1CCCN1C/C=C/c1ccccc1` (centres unmarked), the “% Inhibition @ 10 uM” value is reported as -1.78%. For `N=C(NOC(=O)Cc1ccc(Cl)cc1)c1ccccn1`, the “% Inhibition @ 10 uM” value was 3.72%. In the case of `O=C1C2C3CCC(O3)C2C(=O)N1c1cc([N+](=O)[O-])ccc1O` (centres unmarked), the “% Inhibition @ 10 uM” value is reported as -6.52%. With `COc1cc(CN2CCN(Cc3ccc(Cl)cc3)CC2)cc(OC)c1OC` the “% Inhibition @ 10 uM” value was -21.2%. In the case of `CCOC(=O)N1CCc2[nH]c3ccc(Cl)cc3c2C1`, the “% Inhibition @ 10 uM” value is reported as -7.5%. `CCCN(CCC)C(=O)CS(=O)(=O)Cc1nc(-c2cccc(OC)c2)oc1C` was tested, and the “% Inhibition @ 10 uM” value was -1.89%. With `CCOc1ccccc1CNC(=O)c1ccc(CS(=O)Cc2ccc(Cl)cc2)o1` (centres unmarked) the “% Inhibition @ 10 uM” value was -4.21%. With `CC1(C)CC(=O)C(/C=N/CCc2ccc(S(N)(=O)=O)cc2)=C(O)C1` the “% Inhibition @ 10 uM” value was 7.63%. With `CN(C)c1ccc(NC(=O)CCCC(=O)Nc2ccc(N(C)C)cc2)cc1` the “% Inhibition @ 10 uM” value was 2.32%. With `CCCC(=O)c1ccc(N2CCN(C(=O)c3ccc(F)c(F)c3)CC2)c(F)c1` the “% Inhibition @ 10 uM” value was -1.38%. `CCN1CCN(CCCNC(=O)c2ccc3nc(/C=C(\O)c4ccc(OC)cc4)c(O)nc3c2)CC1` was tested, and the “% Inhibition @ 10 uM” value was 8.63%. `CCOc1ccc(CNCC2CCCO2)cc1` (centres unmarked) was tested, and the “% Inhibition @ 10 uM” value was -1.59%. In the case of `Cc1n[nH]c(C)c1CCCCOc1ccc(Br)cc1`, the “% Inhibition @ 10 uM” value is reported as 4.54%. For `COC(=O)c1c(SC)nc2ccsc2c1O`, the “% Inhibition @ 10 uM” value was 7.25%. With `CN(C(=O)Cn1ncc2c(=O)oc3ccccc3c21)C1CCCCC1` the “% Inhibition @ 10 uM” value was 2.39%. In the case of `Cc1ccc(Sc2ccc(/C=C3\C(=N)N4N=C(S(C)(=O)=O)SC4=NC3=O)o2)cc1`, the “% Inhibition @ 10 uM” value is reported as -3.39%. For `O=C(Nc1ccccc1)c1ccc(N2C(=O)C3CC=CCC3C2=O)cc1` (centres unmarked), the “% Inhibition @ 10 uM” value was -1.88%. With `CC(C)NC(=O)c1nnc(Cc2ccc(Cl)cc2Cl)o1` the “% Inhibition @ 10 uM” value was 0.454%. `CCOc1ccc(/C=C/c2nc(C#N)c(NCC3CCCO3)o2)cc1` (centres unmarked) was tested, and the “% Inhibition @ 10 uM” value was -4.39%. For `CCn1ncc(C(=O)Nc2ccccc2C)c1C`, the “% Inhibition @ 10 uM” value was -0.48%. With `CCOc1ccc2oc(=O)cc(Cn3c(=O)cc(-c4ccccc4)c4c(C)nn(C)c43)c2c1` the “% Inhibition @ 10 uM” value was 3.47%. `O=C(Nc1ccc(S(=O)(=O)N2CCc3ccccc32)cc1)c1ccccc1Cl` was tested, and the “% Inhibition @ 10 uM” value was -2.3%. For `COc1ccc(CCN2CNc3c(-c4cccc(Cl)c4)c(C)nn3C2)cc1OC`, the “% Inhibition @ 10 uM” value was 0.66%. In the case of `CCCCc1ccc(NS(=O)(=O)c2c(C)cc(C)cc2C)cc1`, the “% Inhibition @ 10 uM” value is reported as -3.15%. For `O=C(Cn1cccc1C(=O)c1ccccc1)NCc1cccs1`, the “% Inhibition @ 10 uM” value was -2.25%. With `NS(=O)(=O)c1cccc(Nc2nc3ccccc3nc2NS(=O)(=O)c2ccc(Br)cc2)c1` the “% Inhibition @ 10 uM” value was 5.42%. `O=[N+]([O-])c1ccc(NC(c2ccccc2)c2ccc3cccnc3c2O)cc1` (centres unmarked) was tested, and the “% Inhibition @ 10 uM” value was -2.59%. For `Cc1cc(C)c(OCC(=O)N(Cc2ccc(C)o2)C2CCS(=O)(=O)C2)c(C)c1` (centres unmarked), the “% Inhibition @ 10 uM” value was -1.11%. With `O=C(Nc1ccc(Br)cc1F)C1CCN(S(=O)(=O)c2ccc(F)cc2)CC1` the “% Inhibition @ 10 uM” value was 2.17%. `COc1ccccc1C1C2=C(O)CC(C)(C)CC2=NC2=C1C(=O)CC(C)(C)C2` (centres unmarked) was tested, and the “% Inhibition @ 10 uM” value was -4.67%.
